{
  "source": "the BET-seq Pho4 binding data (Le et al. 2018)",
  "note": "The other results are listed elsewhere or left out. These are noisy estimates, calculated here from bound and input reads.",
  "data": [
    {"target": "T1, Pho4 (S. cerevisiae) (UniProt P07270)", "T1 sequence": "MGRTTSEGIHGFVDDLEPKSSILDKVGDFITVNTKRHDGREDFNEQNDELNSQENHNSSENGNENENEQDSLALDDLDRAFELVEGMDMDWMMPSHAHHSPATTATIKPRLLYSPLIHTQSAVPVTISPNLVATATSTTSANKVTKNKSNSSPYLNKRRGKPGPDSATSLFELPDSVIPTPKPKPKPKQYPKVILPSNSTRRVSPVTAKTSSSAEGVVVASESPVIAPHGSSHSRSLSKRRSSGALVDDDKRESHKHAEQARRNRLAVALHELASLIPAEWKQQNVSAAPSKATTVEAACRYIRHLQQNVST", "test": "relative binding free energy (BET-seq); higher = weaker binding", "conditions": "reference: library average", "units": {"relative binding free energy": "kcal/mol"}, "values": [
      {"sequence": "TGTTTCACGTGGGTCG", "relative binding free energy": 0.19},
      {"sequence": "AGGATCACGTGTTGCG", "relative binding free energy": 0.12},
      {"sequence": "CTGACCACGTGGGGTT", "relative binding free energy": -0.21},
      {"sequence": "GGGGCCACGTGGGGAG", "relative binding free energy": -0.17},
      {"sequence": "GGGCACACGTGTTAGT", "relative binding free energy": 0},
      {"sequence": "CGAGTCACGTGGGAGA", "relative binding free energy": 0.13},
      {"sequence": "GAGTGCACGTGTGGGC", "relative binding free energy": -0.03},
      {"sequence": "TGACGCACGTGTTGGC", "relative binding free energy": 0.13},
      {"sequence": "GGCGGCACGTGCTAGG", "relative binding free energy": -0.25},
      {"sequence": "TTTGACACGTGGGTTC", "relative binding free energy": -0.13},
      {"sequence": "AGTTACACGTGGAGGA", "relative binding free energy": 0.13},
      {"sequence": "GACGTCACGTGTCGGT", "relative binding free energy": 0.13},
      {"sequence": "TCGGTCACGTGTAGGT", "relative binding free energy": 0.1},
      {"sequence": "GCGGTCACGTGGTGTC", "relative binding free energy": 0.13},
      {"sequence": "TGTGTCACGTGGCACG", "relative binding free energy": -0.04},
      {"sequence": "TTAGGCACGTGTTGAC", "relative binding free energy": -0.11},
      {"sequence": "ATATTCACGTGGTGGT", "relative binding free energy": 0.3},
      {"sequence": "TTACGCACGTGTTTGC", "relative binding free energy": -0.15},
      {"sequence": "TATGGCACGTGAATTT", "relative binding free energy": 0.17},
      {"sequence": "TAGTGCACGTGCGTTT", "relative binding free energy": 0.03},
      {"sequence": "TATAACACGTGTTGTA", "relative binding free energy": -0.05},
      {"sequence": "TGTTTCACGTGATCGT", "relative binding free energy": 0.26},
      {"sequence": "AATGTCACGTGAGGTC", "relative binding free energy": 0.23},
      {"sequence": "AATTACACGTGGGTTG", "relative binding free energy": 0.04},
      {"sequence": "GATCTCACGTGTGTGG", "relative binding free energy": 0.28},
      {"sequence": "GGTGTCACGTGGGCTG", "relative binding free energy": -0.02},
      {"sequence": "GATGCCACGTGGTTTG", "relative binding free energy": -0.04},
      {"sequence": "CAGTGCACGTGTAAGG", "relative binding free energy": 0.03},
      {"sequence": "AGTGTCACGTGACAGT", "relative binding free energy": 0.12},
      {"sequence": "GAATTCACGTGGATTG", "relative binding free energy": 0.31},
      {"sequence": "GGTAGCACGTGGGGTG", "relative binding free energy": -0.16},
      {"sequence": "TGTTTCACGTGTGCGC", "relative binding free energy": 0.28},
      {"sequence": "CTTTGCACGTGTTATT", "relative binding free energy": -0.04},
      {"sequence": "TATGGCACGTGTGCCT", "relative binding free energy": 0.03},
      {"sequence": "GGTGGCACGTGTATGA", "relative binding free energy": -0.01},
      {"sequence": "GGGGTCACGTGGTCAT", "relative binding free energy": 0.02},
      {"sequence": "TGTAGCACGTGCAGGG", "relative binding free energy": -0.32},
      {"sequence": "GCTAACACGTGAGGGT", "relative binding free energy": 0.36},
      {"sequence": "GGATACACGTGGGCTG", "relative binding free energy": -0.12},
      {"sequence": "GTTTACACGTGCTGGG", "relative binding free energy": 0.14},
      {"sequence": "GAGTACACGTGGTAGC", "relative binding free energy": 0.25},
      {"sequence": "AGTTTCACGTGCGCAG", "relative binding free energy": 0.34},
      {"sequence": "CGAGGCACGTGCGGGT", "relative binding free energy": -0.16},
      {"sequence": "TAATACACGTGATTGG", "relative binding free energy": 0.16},
      {"sequence": "AGGGCCACGTGTTATA", "relative binding free energy": -0.03},
      {"sequence": "GGAATCACGTGCGGTA", "relative binding free energy": 0.1},
      {"sequence": "TATAACACGTGTAGGG", "relative binding free energy": 0.14},
      {"sequence": "TGGGCCACGTGTAGTA", "relative binding free energy": -0.08},
      {"sequence": "AGTGCCACGTGGGGCG", "relative binding free energy": -0.33},
      {"sequence": "ATTGACACGTGGGTTG", "relative binding free energy": -0.09},
      {"sequence": "TGGGTCACGTGGAAGC", "relative binding free energy": 0.09},
      {"sequence": "TTTTCCACGTGGGGCT", "relative binding free energy": -0.1},
      {"sequence": "TAATCCACGTGAGGGG", "relative binding free energy": 0.18},
      {"sequence": "TTAGACACGTGTGGAT", "relative binding free energy": 0.12},
      {"sequence": "GGCAGCACGTGGTAAT", "relative binding free energy": -0.08},
      {"sequence": "CTGTGCACGTGTTTAT", "relative binding free energy": -0.09},
      {"sequence": "ATCGTCACGTGTGGTG", "relative binding free energy": 0.2},
      {"sequence": "TGAGACACGTGTAGTA", "relative binding free energy": 0.05},
      {"sequence": "AGATACACGTGTTTGG", "relative binding free energy": 0.04},
      {"sequence": "TGACACACGTGTGTGG", "relative binding free energy": 0.04},
      {"sequence": "GTGGCCACGTGAGGTC", "relative binding free energy": 0.15},
      {"sequence": "GAAGACACGTGGGGTT", "relative binding free energy": -0.05},
      {"sequence": "TGTGACACGTGTATGC", "relative binding free energy": -0.08}
    ]}
  ]
}
